Cell count data for five molecules are collected here from the supplement of paper PMC4604168 (melanoma cell lines).

Test systems include 501Mel; A101D; A2058; A375.
Holding throughout (experiment): cell count relative to DMSO control; melanoma cells; higher = more viable cells
Settings in all cases: library dose: standard library concentration; 72 h

This is one part of the list. Most values come without repeats; read them as rough.
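Also: cells treated in 1,536-well plates, then fixed and DAPI-stained, with nuclei counted from automated high-throughput microscope images.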

Turning to `CC1(C)CCC(c2ccc(Cl)cc2)=C(CN2CCN(c3ccc(C(=O)NS(=O)(=O)c4ccc(N[C@H](CCN5CCOCC5)CSc5ccccc5)c(S(=O)(=O)C(F)(F)F)c4)cc3)CC2)C1` + COC(=O)c1sccc1S(=O)(=O)Nc1ccc(Nc2ccccc2)cc1OC [GSK0660] (first compound 2 µM, partner dose 5 µM), the cell count in the assay with 501Mel was 92%; in the assay on A101D, 45.9%; in the assay on A2058 it was 105%; with A375, 76.6%.

`Cc1ccc(Nc2nccc(N(C)c3ccc4c(C)n(C)nc4c3)n2)cc1S(N)(=O)=O` [Pazopanib] + COC(=O)c1sccc1S(=O)(=O)Nc1ccc(Nc2ccccc2)cc1OC [GSK0660] (first compound 2 µM, partner dose 5 µM): the cell count in the assay with 501Mel worked out at 89.2%; in the assay with A101D it was 92.1%; with A2058 it was 77.9%; in the assay with A375, 84.1%.

In the case of `Cc1ccc(Nc2nccc(N(C)c3ccc4c(C)n(C)nc4c3)n2)cc1S(N)(=O)=O` [Pazopanib] + CCN(CC)CCCCNc1ncc2cc(-c3cc(OC)cc(OC)c3)c(NC(=O)NC(C)(C)C)nc2n1 [PD173074] (first compound 2 µM, partner dose 0.5 µM), the cell count is 97.5% in the assay with 501Mel, 92.2% in the assay on A101D, 106% in the assay on A2058 and 123% in the assay with A375.

`O=C(/C=C/c1cccnc1)NCCCCC1CCN(C(=O)c2ccccc2)CC1` + O=S(=O)(c1ccccc1)N(CC(F)(F)F)c1ccc(C(O)(C(F)(F)F)C(F)(F)F)cc1 [T0901317] (first compound 0.05 µM, partner dose 7 µM): the cell count with 501Mel turned out to be 45.5%; in the assay on A101D, 88.1%; with A2058, 108%; in the assay with A375, 106%.

Regarding `CC1(C)CCC(c2ccc(Cl)cc2)=C(CN2CCN(c3ccc(C(=O)NS(=O)(=O)c4ccc(N[C@H](CCN5CCOCC5)CSc5ccccc5)c(S(=O)(=O)C(F)(F)F)c4)cc3)CC2)C1` + COc1ccc(-c2ccc3c(N4CCOCC4)nc(N4C[C@@H](C)O[C@@H](C)C4)nc3n2)cc1CO [KU0063794] (first compound 2 µM, partner dose 0.1 µM), the cell count is 95% with 501Mel, 44.8% in the assay on A101D, 91.6% in the assay with A2058 and 92.5% in the assay with A375.
